# Laboratory results from PubChem BioAssay AID1491 (National Center for Advancing Translational Sciences (NCATS), 2009).
# Results filed as inconclusive are left out. Calls come from the whole dose curve; as a rule, active = well fitted inhibition curve with a large enough effect in the main read-out, with a control signal flat; inconclusive = small, poorly fitted or top-dose-only effect, or a change in a side signal; inactive = flat fitted curve, though single readings scatter. Not every entry of the source has a single result; some have several. This list holds those alone. The source may hold further records. The values listed for one entry are repeats (runs, samples, wells, individuals or studies).
# Biological target: Neuropeptide S receptor (Homo sapiens) (UniProt Q6W5P4)
# Assay: Confirmation Concentration-Response Assay for Antagonists of the Neuropeptide S Receptor: cAMP Signal Transduction
# Conditions: CHO-NPSR cells, cAMP TR-FRET, antagonist mode
# Source text: NIH Chemical Genomics Center [NCGC] NIH Molecular Libraries Probe Production centers Network [MLPCN] MLPCN Grant: X01-DA026210-01 Assay Submitter (PI): Heilig, Markus Alexander NCGC Assay Overview: Neuropeptide S receptor (NPSR), previously known as GPR154, is a recently de-orphanized G protein coupled receptor. Its endogenous ligand is the 20 amino acids peptide Neuropeptide S (NPS). […] NPS and its receptor are found in various tissues. Specifically they are highly expressed in brain areas that have been implicated in modulation of arousal, stress and anxiety. Central administration of NPS in mice produces an unusual profile of activity by inducing wakefulness and arousal, while at the same time suppressing anxiety. Therefore, NPSR may represent a novel drug target for the treatment of sleep and anxiety disorders. […] This change in intracellular cAMP level can be detected by a homogeneous LANCE cAMP assay based on the TR-FRET (time resolved fluorescence resonance energy transfer) between a europium-labeled cAMP tracer complex and a cAMP-specific antibody labeled with Alexa Fluor 647. […] Both emission signals from the FRET donor (620 nm) and the acceptor (665 nm) can be detected by a plate reader in the TRF mode. Expression of result in fluorescence ratio (665 nm/620 nm) helps to normalize differences due to cell density and reagent dispensing. […]
# Potency is the fitted concentration of half-maximal effect.
# UniProt Q6W5P4, sequence (Q6W5P4 whole entry, looked up): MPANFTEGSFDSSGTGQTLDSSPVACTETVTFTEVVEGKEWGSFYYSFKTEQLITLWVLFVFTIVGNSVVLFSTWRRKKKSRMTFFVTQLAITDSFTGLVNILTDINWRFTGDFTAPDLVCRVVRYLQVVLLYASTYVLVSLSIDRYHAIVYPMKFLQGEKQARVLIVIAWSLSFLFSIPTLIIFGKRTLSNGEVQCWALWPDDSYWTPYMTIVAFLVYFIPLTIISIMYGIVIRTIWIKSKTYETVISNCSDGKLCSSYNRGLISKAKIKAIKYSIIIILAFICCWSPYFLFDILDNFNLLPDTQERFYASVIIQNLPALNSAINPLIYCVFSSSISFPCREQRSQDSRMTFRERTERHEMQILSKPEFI
structure (smiles),measurement,value
COc1ccc(C2c3c(ncn(CCN4CCOCC4)c3=N)Oc3ccc4ccccc4c32)cc1OC (stereo unspecified),Potency,"active: 1.58, 2.24, 1.26, 12.6 µM [separate samples]"
